Reference: PubChem BioAssay AID1030 (National Center for Advancing Translational Sciences (NCATS), 2008)
The campaign covered roughly 220,000 compounds. About 16,000 (7.3%) were called active. Inconclusive results, whose numbers are uncertain, are shown with a selection of clear calls. Calls follow the shape of the dose curve; as a rule, active = well fitted inhibition curve with a large enough effect (not every such curve was filed as active); inconclusive = small, poorly fitted or top-dose-only effect, or another doubt; inactive = no such curve, though single readings can be large or run the other way. No potency is given beside an inconclusive call; the fits are too rough.
Potency is read from the fitted curve at half-maximal effect; tags tell the direction and shape of the fitted curve.

These molecules were tested against Aldehyde dehydrogenase 1A1 (Homo sapiens) (UniProt P00352) (assay: qHTS Assay for Inhibitors of Aldehyde Dehydrogenase 1 (ALDH1A1)). Conditions: Purified ALDH1A1, NADH fluorescence, propionaldehyde substrate; series mostly up to 75.3 µM.
UniProt P00352, sequence (P00352 whole entry, looked up): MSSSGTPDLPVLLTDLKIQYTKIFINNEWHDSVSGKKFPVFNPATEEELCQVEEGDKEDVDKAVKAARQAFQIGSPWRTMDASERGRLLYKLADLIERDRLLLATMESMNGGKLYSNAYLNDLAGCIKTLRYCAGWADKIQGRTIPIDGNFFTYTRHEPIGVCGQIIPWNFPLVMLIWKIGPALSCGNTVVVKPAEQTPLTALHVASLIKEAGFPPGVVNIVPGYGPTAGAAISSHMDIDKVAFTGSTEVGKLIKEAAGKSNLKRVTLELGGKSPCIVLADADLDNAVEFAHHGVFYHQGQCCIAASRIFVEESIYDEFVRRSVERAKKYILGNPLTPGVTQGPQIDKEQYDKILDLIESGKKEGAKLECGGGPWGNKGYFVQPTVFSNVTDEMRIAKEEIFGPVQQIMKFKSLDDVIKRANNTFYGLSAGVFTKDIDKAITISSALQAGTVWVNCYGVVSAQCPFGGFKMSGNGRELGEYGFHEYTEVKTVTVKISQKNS
For `O=C(Cc1ccccc1)NC(NC(=S)Nc1cc(Cl)ccc1Cl)C(Cl)(Cl)Cl` (centres undefined), the Potency was inconclusive [inhibitor, single point].
With `Cc1cc2ccccc2n1CCNC(=O)c1ccc(S(=O)(=O)N2CCCCC2)cc1` the Potency was active: 3.16 µM.
`O=C(CSCc1nc2ccccc2[nH]1)N1CCN(c2ccc(F)cc2)CC1` was tested, and the Potency was “inactive”.
For `COc1cccc(/C=N/NC(=O)c2ccc(=O)n(C)c2)c1O`, the Potency was “inactive”.
In the case of `c1ccc(-n2nnnc2-n2cnc3ccccc32)cc1`, the Potency is reported as inconclusive [inhibitor, single point].
In the case of `O=C(NCc1ccccc1)c1nc[nH]c1C(=O)NCc1ccccc1`, the Potency is reported as active: 2.51 µM.
In the case of `O=C(CN1CCN(Cc2ccccc2)CC1)c1ccccc1`, the Potency is reported as inconclusive [inhibitor, single point].
For `COc1ccc(S(=O)(=O)NCC2CCCN(C(=O)c3cccnc3)C2)cc1` (centres undefined), the Potency was inconclusive [inhibitor, partial curve].
In the case of `CCCCSc1nc(C)cc(NC(=S)Nc2ccc(OC)cc2)n1`, the Potency is reported as inconclusive [inhibitor, full curve].
With `NCC1CCC(C(=O)O)CC1` (centres undefined) the Potency was “inactive”.
`Cc1ccc(C)c(N2C(=O)CN=C2Nc2ccccc2Cl)c1` was tested, and the Potency was inconclusive [inhibitor, single point].
For `COCCn1c(=NC(=O)c2ccc(S(=O)(=O)N3CCc4ccccc4C3)cc2)sc2cc(S(N)(=O)=O)ccc21`, the Potency was inconclusive [inhibitor, partial curve].
In the case of `Cc1cccc(NC2=NCC(=O)N2Cc2ccccc2)c1`, the Potency is reported as active: 25.1 µM.
In the case of `CCCN(Cc1cc2ccc(C)cc2[nH]c1=O)S(=O)(=O)c1ccccc1`, the Potency is reported as inconclusive [inhibitor, single point].
`COc1ccc2c(c1)O[C@@H](c1cccc(C(F)(F)F)c1)[C@H](OC(=O)NS(=O)(=O)c1ccc(F)cc1)C2=O` was tested, and the Potency was “inactive”.
`COc1cc(-c2nc(S(=O)(=O)c3ccccc3)c(N3CCOCC3)o2)cc(OC)c1OC` was tested, and the Potency was active: 10 µM.
For `COc1cccc(Nc2nc(NCCO)c3ccccc3n2)c1`, the Potency was “inactive”.
`COc1ccc(C(=O)NC(=S)NC(C)C)cc1Br` was tested, and the Potency was inconclusive [inhibitor, single point].
With `CCCc1nc2ccccc2c(C(=O)OCC(=O)NCc2ccco2)c1CC` the Potency was “inactive”.
For `Cc1cc(C)c(C)c(S(=O)(=O)N2CCCCC2C(=O)O)c1C` (centres undefined), the Potency was “inactive”.
With `COc1cccc(CNC(=O)CSCc2cnn(-c3ccccc3)c2-n2cccc2)c1OC` the Potency was inconclusive [inhibitor, partial curve].
In the case of `COC(=O)C1=C(C)NC(C)=C(C(=O)OC)C1c1cc2cc(C)ccc2[nH]c1=O`, the Potency is reported as inconclusive [inhibitor, partial curve].
`Cc1ccc(S(=O)(=O)N2CCN(C3CC(=O)N(Cc4ccccc4)C3=O)CC2)cc1C` (centres undefined) was tested, and the Potency was inconclusive [inhibitor, single point].
For `COc1cc2c(cc1OC)CN(CC(=O)NC(=O)NCc1ccco1)CC2`, the Potency was inconclusive [inhibitor, single point].
For `CCOC(=O)C1Sc2ccccc2NC1=O` (centres undefined), the Potency was “inactive”.
With `Cc1nc(C)c(-c2csc(Nc3cccnc3)n2)s1` the Potency was “inactive”.
With `COc1cc(-c2nc(Cc3ccccc3Cl)no2)cc(OC)c1OC` the Potency was inconclusive [inhibitor, single point].
`C/[N+]([O-])=C\CC(=O)c1ccc(-c2ccccc2)cc1` was tested, and the Potency was active: 28.2 µM.
`CCCN(CCC)CC(O)CN1C(=O)NC(C)(C)C1=O` (centres undefined) was tested, and the Potency was “inactive”.
With `C=CC#CC1(O)CC(C)[N+](C)(C)CC1C` (centres undefined) the Potency was “inactive”.
With `CCCOc1ccc(C2/C(=C(/O)c3ccc(F)cc3)C(=O)C(=O)N2CCCN(C)C)cc1` (centres undefined) the Potency was “inactive”.
With `CN(C)c1ccc(N=Nc2ccccc2C(=O)OCC(=O)NC2CCCC2)cc1` the Potency was “inactive”.
With `NC(=O)c1c(NC(=O)C2c3ccccc3Oc3ccccc32)sc2c1CCCCC2` the Potency was inconclusive [inhibitor, single point].
In the case of `O=C(O)c1ccccc1NCn1c(=S)sc2ccccc21`, the Potency is reported as inconclusive [inhibitor, single point].
For `O=C(Nc1ccc2oc(-c3ccncc3)nc2c1)c1ccccc1`, the Potency was inconclusive [inhibitor, single point].
`O=C(CN1C(=O)NC2(CCCC2)C1=O)NCC1CCCO1` (centres undefined) was tested, and the Potency was “inactive”.
`CC(C)N(C(=O)/C=C/c1cccc([N+](=O)[O-])c1)C(C)C` was tested, and the Potency was “inactive”.
`COc1ccc(-c2nc3cnc(N(C)C)nc3n(C3CC3)c2=O)cc1` was tested, and the Potency was inconclusive [inhibitor, single point].
`Cc1ccc(C(=O)NC(=S)Nc2ccc(N3CCOCC3)cc2)cc1C` was tested, and the Potency was inconclusive [inhibitor, single point].
`CCc1nc(SCC(=O)Nc2sc(C)c(C)c2C(=O)OC)c2ccccc2n1` was tested, and the Potency was inconclusive [inhibitor, single point].
For `COc1ccc(-c2nn(-c3ccccc3)cc2C(=O)NC(=S)NNC(=O)c2ccncc2)cc1`, the Potency was inconclusive [inhibitor, single point].
`O=C(COC(=O)CNC(=O)c1ccccc1)Nc1ccc(F)c([N+](=O)[O-])c1` was tested, and the Potency was inconclusive [inhibitor, single point].
With `CCOC(=O)CC(=O)CSc1nc2ccccc2c(=O)n1-c1ccc(C(=O)NCCOC)cc1` the Potency was “inactive”.
For `O=C(c1ccccc1Cl)N1N=C(c2ccc(Br)cc2)CC1c1nc2ccccc2[nH]1` (centres undefined), the Potency was inconclusive [inhibitor, single point].
`CC(=O)Nc1ccc(NC(=O)c2cccc3c2-c2ccccc2C3=O)cc1` was tested, and the Potency was “inactive”.
In the case of `O=Nc1ccc(NOC(=O)c2ccc(Br)cc2)cc1`, the Potency is reported as “inactive”.
In the case of `CN(C)C(=O)c1c(-c2ccccc2)oc2ccc(O)cc12`, the Potency is reported as inconclusive [inhibitor, single point].
In the case of `O=c1c2cn[nH]c2[nH]c(=S)n1-c1cccc2ccccc12`, the Potency is reported as “inactive”.
With `CNCCCOc1ccc(C)cc1OC` the Potency was inconclusive [inhibitor, partial curve].
